Measured values as given in PubChem BioAssay AID1159614 (National Center for Advancing Translational Sciences (NCATS), 2016).
The whole screen tested about 45,000 compounds, of which about 65 (0.1%) were called active. Calls come from the whole dose curve; as a rule, active = well fitted activation curve with a large enough effect; inconclusive = small, poorly fitted or top-dose-only effect; inactive = no such curve, though single readings can be large or run the other way. Some of the results follow.

Target: Galactocerebrosidase (Homo sapiens) (UniProt P54803)
Assay: A Novel Cell-Based Assay to Identify Small Molecules for B -Galactocerebrosidase; note: 0% is about no effect; nearly all actives have a fitted effect of over 65% in size
Conditions: 145M-Twi-hGALC-G270D cells (Twitcher mouse brain line with human GALC G270D), HMU-beta-Gal fluorescence, 48 h; series mostly up to 57.5 µM; activation: at the top concentration
Outline: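 Live 145M-Twi cells (Twitcher mouse brain-derived, GALC-null) stably expressing human GALC-G270D, with a wild-type GALC line, were compound-treated. Residual GALC activity was then read as fluorescence from 0.1 mM final HMU-β-gal at pH 5.2; higher signal means activation.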

Chain of UniProt P54803 (P54803 whole entry, looked up): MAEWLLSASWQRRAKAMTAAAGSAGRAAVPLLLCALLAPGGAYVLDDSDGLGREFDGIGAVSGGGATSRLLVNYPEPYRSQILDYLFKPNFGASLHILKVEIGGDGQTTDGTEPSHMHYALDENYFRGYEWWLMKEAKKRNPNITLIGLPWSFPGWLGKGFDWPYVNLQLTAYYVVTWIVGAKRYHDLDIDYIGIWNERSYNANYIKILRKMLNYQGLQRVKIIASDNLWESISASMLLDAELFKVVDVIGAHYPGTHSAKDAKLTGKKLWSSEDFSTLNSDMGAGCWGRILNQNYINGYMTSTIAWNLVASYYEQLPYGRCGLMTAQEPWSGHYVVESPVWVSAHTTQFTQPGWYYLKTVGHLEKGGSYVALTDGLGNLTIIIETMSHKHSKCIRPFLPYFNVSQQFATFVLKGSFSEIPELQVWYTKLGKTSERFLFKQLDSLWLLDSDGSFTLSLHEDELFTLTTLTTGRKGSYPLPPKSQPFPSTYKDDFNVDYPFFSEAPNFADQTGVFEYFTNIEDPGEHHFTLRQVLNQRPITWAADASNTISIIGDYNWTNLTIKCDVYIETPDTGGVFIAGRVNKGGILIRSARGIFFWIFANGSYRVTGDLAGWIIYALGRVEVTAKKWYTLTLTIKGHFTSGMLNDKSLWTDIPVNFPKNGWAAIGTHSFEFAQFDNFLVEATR

Compound	activation
CC1=C(c2ccc(C)c(C)c2)S(=O)(=O)NC1=NCc1ccccc1Cl	inactive: 4.86%
CCOc1ccc(CCNC(=O)c2cn(C)c3ccc(S(=O)(=O)N4CCCCC4)cc3c2=O)cc1OCC	inactive: -13.9%
CCOC(=O)c1sc2ncn(CC(=O)Nc3ccc(OCC)cc3)c(=O)c2c1C	inactive: -13%
COc1ccc(-c2nc(C)c(CCNS(=O)(=O)c3cc(Cl)ccc3Cl)s2)cc1	inactive: -30.5%
Cc1c(C(=O)Nc2cccc(C(F)(F)F)c2)oc2ccc3c(c12)C(=O)CC(C)(C)O3	inactive: -10.4%
CCC(=O)N1c2ccccc2CC1C(=O)NCCc1ccc(OC)c(OC)c1 (stereo unspecified)	inactive: -7.07%
CCc1nn2c(=O)cc(COC(=O)COc3ccc(OC)cc3)nc2s1	inactive: -22.1%
O=C(CNC(=O)c1ccc(F)cc1)OCc1cc(=O)n2nc(C3CC3)sc2n1	inactive: 1.82%
CCc1nc2nc(C)c(NS(=O)(=O)c3ccc(C(C)(C)C)cc3)c(=O)n2[nH]1	inactive: -6.62%
O=C(CCn1cnc2ccccc2c1=O)NCc1ccccc1Cl	inactive: -13.4%
CCOC(=O)c1cc2c(=O)n3ccccc3nc2n(CCOC)c1=NC(=O)c1c(-c2ccccc2Cl)noc1C	inactive: 0.707%
Cn1c(=O)oc2cc(S(=O)(=O)NCCC(=O)Nc3ccc(F)cc3F)ccc21	inactive: -7.71%
COc1cccc(-n2c(=O)c3sc4ccccc4c3n(CC(=O)NC3CCCCC3)c2=O)c1	inactive: -5.41%
Cc1c(NC(=O)c2ccc(-c3cccc([N+](=O)[O-])c3)o2)cccc1-c1nc2cc(Cl)ccc2o1	inactive: 3.86%
O=C(NCCC1=CCCCC1)c1ccc2c(c1)N(Cc1cccc(Cl)c1)C(=O)c1ccccc1S2=O (stereo unspecified)	inactive: -5.08%
CC(C)CCNC(=O)Cc1ccc(NC(=O)N2CCCCc3ccccc32)cc1	inactive: -7.97%
CCCCC(=O)NC1CC(=O)N(c2ccc3c(c2)OCCO3)C1 (stereo unspecified)	inactive: -2.71%
Cc1ccc(S(=O)(=O)N(CC(=O)Nc2ccc3c(c2)OCO3)c2cc(Cl)cc(Cl)c2)cc1	inactive: -18.5%
Cc1cc(OCC(=O)Nc2ncn[nH]2)ccc1Cl	inactive: -9%
CCN(CC)S(=O)(=O)c1ccc(OC)c(-n2cnnn2)c1	inactive: 3.24%
CCc1ccc(CNC(=O)c2nn(-c3ccc(C)cc3)c(=O)c3c2c2ccccc2n3C)cc1	inactive: -25.9%
Cc1nc2c(-c3ccc(F)cc3)c(C)nn2c(C)c1CCC(=O)N1CCN(c2ccccc2)CC1	inactive: -31.8%
CCN(C(=O)Cn1nnc2sc3c(c2c1=O)CCC(C(C)(C)C)C3)c1cccc(C)c1 (stereo unspecified)	inactive: -10.2%
CCCCn1c(SCC(=O)c2ccccc2)nc2c(sc3ccccc32)c1=O	inactive: -6.26%

Compound	activation
CCC1CN(S(=O)(=O)c2cc(-c3cc(C)no3)ccc2C)c2cc(C)ccc2O1 (stereo unspecified)	inactive: -37.2%
Cc1ccc(-n2nc3ccc(NC(=O)COc4ccccc4C)cc3n2)cc1	inactive: -12.7%
COc1cc(CCC(=O)NCc2ccc3c(c2)CCN3C(=O)c2ccccc2)cc(OC)c1OC	inactive: -13.7%
Cc1ccc(C)c(N2CCN(S(=O)(=O)c3cc(-c4cc(C)no4)ccc3C)CC2)c1	inactive: -30%
COc1ccc(-c2nnc(SCC(=O)NCCc3ccc(OC)c(OC)c3)nc2-c2ccc(OC)cc2)cc1	inactive: -11.5%
Cc1nc2cccnc2n1-c1cccc(C(=O)N2CCN(c3cccc(Cl)c3)CC2)c1	inactive: -6.98%
Cc1ccc(-n2nc(CO)c(C(=O)NCCCCc3ccccc3)n2)cc1C	inactive: 0.688%
CSc1ccc(CCNC(=O)c2cc(C)nc3c2c(C)nn3-c2ccccc2)cc1	inactive: -9.83%
CC1=Nc2cc(C(=O)NCc3ccccc3Cl)ccc2Sc2c(C)ccc(C)c21	inactive: -0.554%
COc1ccc(-c2ccc3c(N)c(C(=O)Nc4ccc(C(F)(F)F)cc4)sc3n2)cc1OC	inactive: -2.14%
O=C(CN1C(=O)C(c2ccc(F)cc2)=NC12CCCCCC2)Nc1ccccc1Cl	inactive: -14.7%
CCCn1c(=O)n(-c2ccccc2Cl)c(=O)c2sc3ccccc3c21	inactive: -6.81%
Cc1cc(C)c(NC(=O)Cn2nc(-c3ccncc3)ccc2=O)c(C)c1	inactive: -19%
Cc1ccc(-c2noc(-c3ccccc3NC(=O)c3ccccc3)n2)cc1	inactive: -8.51%
CCC(=O)N1CCc2cc(Br)cc(S(=O)(=O)CCC(=O)NCc3ccccc3OC)c21	inactive: -26.8%
Cc1ccc(NC(=O)Cc2ccc(-n3c(C)nc4cccnc43)cc2)c(Cl)c1	inactive: -11.7%
CCOc1ccc(NC(=O)Cn2ncc3c2-c2cc(C)ccc2OC3)cc1	inactive: -11.9%
CCOC(=O)c1[nH]c(C)c(CCC(=O)N2CCN(c3cccc(OC)c3)CC2)c1C	inactive: -13.4%
CCCCN(CC)C(=O)CSc1nc2n[nH]c(C)c2c(=N)n1-c1cccc(Cl)c1	inactive: -0.861%
COc1ccccc1C(=O)NCCn1cc(SCC(=O)Nc2ccccc2F)c2ccccc21	inactive: 4.38%
COc1ccc(CCNC(=O)C(=O)Nc2ccccc2F)cc1	inactive: -5.94%
Cc1ccc(CNC(=O)C(=O)Nc2c3c(nn2-c2ccccc2)CSC3)cc1	inactive: -2.5%
Cc1ccc(C)c(N2CCN(S(=O)(=O)c3ccc4[nH]c5c(c4c3)CCCCC5)CC2)c1	inactive: -40.5%
CC(C)Cn1cc(NC(=O)N2CCN(c3cccc(Cl)c3)CC2)c2ccccc2c1=O	inactive: -22.2%

Compound	activation
O=C(NCc1ccccc1)c1ccc(CNS(=O)(=O)c2ccc(Br)cc2)cc1	inactive: -14.6%
COc1ccccc1CNS(=O)(=O)c1ccc2c(c1)CC(C)N2C(C)=O (stereo unspecified)	inactive: -4.62%
CC1CCN(S(=O)(=O)c2ccc3c(c2)N(CC(=O)NC(C)c2ccccc2)C(=O)CS3)CC1 (stereo unspecified)	inactive: -0.507%
O=C(O)c1cc(=O)c2ccccc2o1	inactive: -14.6%
Cc1cc(C)c(NC(=O)c2cc(S(=O)(=O)N3CCC4(CC3)OCCO4)ccc2F)c(C)c1	inactive: -7.84%
Cc1ccc(-c2nc(NC(=O)CSc3cc(C)c4ccccc4n3)ns2)cc1	inactive: -10.8%
COc1cc(Cl)c(S(=O)(=O)NCCc2c(C)[nH]c3c(C)cccc23)cc1Cl	inactive: -7.74%
CCc1ccc(NC(=O)N2CCOc3ccc(Cl)cc32)cc1	inactive: -7.8%
O=C(Nc1cc(-c2nc3cc(Cl)ccc3o2)ccc1Cl)c1ccco1	inactive: -11.4%
CC1CCCN(C(=O)CSc2c3c(nc4cc(Cl)ccc24)CCCC3)C1 (stereo unspecified)	inactive: -1.13%
COc1cccc(C2C(C(=O)Nc3ccc(C)cc3C)=C(C)Nc3c(C(=O)Nc4ccccc4)cnn32)c1 (stereo unspecified)	inactive: -4.64%
O=C(Nc1nnc(S(=O)(=O)N2CCCc3ccccc32)s1)c1cccc(Cl)c1	inactive: -2.85%
CCc1ccc(NC(=O)CSc2nc(=O)n(Cc3ccccn3)c3c2CCC3)cc1	inactive: 1.28%
CCN(CCCNC(=O)Cn1ncc2c3ccccc3n(C)c2c1=O)Cc1ccccc1	inactive: 1.92%
CCCSc1ncc(Cl)c(C(=O)Nc2ccc(S(=O)(=O)N(C)c3ccccc3)cc2)n1	inactive: -12.4%
COC(=O)c1ccc(C2c3c(-c4ccccc4O)n[nH]c3C(=O)N2Cc2cccnc2)cc1 (stereo unspecified)	inactive: -31.4%
COc1ccc(S(=O)(=O)N2CCC(C(=O)Nc3ccc(Oc4ccccc4)cc3)CC2)cc1	inactive: -24.9%
Oc1ccc(Cl)cc1Cc1cc(Cl)ccc1O	inactive: -5.63%
CCc1cccc(C)c1NS(=O)(=O)c1c(C(=O)N2CCC(C)CC2)c(C)n(C)c1C	inactive: -8.36%
COc1ccc(NC(=O)c2cc(S(=O)(=O)N3CCOCC3)ccc2OC)cc1	inactive: -8.65%
NS(=O)(=O)c1cc(C(=O)O)c(NCc2ccco2)cc1Cl	inactive: -11.7%
Cc1nnc(N2CCC(C(=O)NC3CCCCC3)CC2)c2nn(-c3ccccc3)c(C)c12	inactive: -7.62%
COc1cccc(CNC(=O)c2ccc3c(c2)c(C)c(C)n3Cc2ccccc2)c1	inactive: -4.81%
COc1ccc(CNC(=O)c2cc3cc4cc(OC)ccc4nc3o2)cc1	inactive: -16%

Compound	activation
NC(=O)C1CCN(C(=O)c2ccc(NC(=O)c3nsc4ccccc34)cc2)CC1	inactive: -7.77%
CCOc1ccccc1N(CC)C(=O)Cn1ncc2c([nH]c3ccccc32)c1=O	inactive: -15%
COc1ccc(OC)c(NS(=O)(=O)c2ccc3c(c2)C(C)(C)C(=O)N3C)c1	inactive: -9.25%
COc1cc(Cl)c(C)cc1NC(=O)C1CCN(c2nc3ccccc3n3cccc23)CC1	inactive: -34.5%
Cc1ccc(C)c(NC(=O)N2CCN(C(=O)c3nsc4ccccc34)CC2)c1	inactive: -10.7%
O=C(c1ccccc1)N1CCN(CCc2ccncc2)CC1	inactive: 3.25%
CC(=O)c1ccc(NC(=O)c2nc3ccccc3nc2N2CCCCC2)cc1	inactive: -7.2%
Clc1cccc(-c2ccc(CNCCSc3nnnn3-c3ccccc3)o2)c1	inactive: -14.9%
COC(=O)c1ccc2c(c1)N(Cc1ccc(F)cc1)C(=O)c1ccccc1S2	inactive: -8.95%
Cn1c(NCCO)nc2c1c(=O)n(Cc1cccc(F)c1)c(=O)n2C	inactive: -8.93%
CCCCN1C(=O)C(O)(c2c[nH]c3ccccc23)c2cc(Br)ccc21 (stereo unspecified)	inactive: -2.24%
CCCCN(CCCC)S(=O)(=O)c1ccc2oc(C(=O)NCc3ccc(C)cc3)c(C)c2c1	inactive: 22.4%
CCc1ccc(-c2[nH]c3c(c2-c2sc(C)c(C(=O)OC)c2O)c(=O)[nH]c(=O)n3C)cc1	inactive: -8.37%
Cc1coc2c(C)c3oc(=O)c(CCC(=O)NCCc4ccccc4)c(C)c3cc12	inactive: -9.33%
Cc1nn(C(=O)c2ccc(Br)cc2)c(C)c1S(=O)(=O)N1CCOCC1	inactive: -8.87%
COc1ccc(-c2cc(C(F)(F)F)nc(SCCC(=O)Nc3cc(C)ccc3O)n2)cc1	inactive: -15.7%
COc1ccc2c(c1)sc1ncc(C(=O)NCc3ccc(OC(C)C)cc3)c(=O)n12	inactive: -7.05%
O=C(CCCN1CCN(c2ccc(F)cc2)CC1)NC1c2ccccc2CSc2ccccc21 (stereo unspecified)	inactive: 0.198%
CCOc1ccc(CCNC(=O)c2cnc3c(-c4ccc(F)cc4)c(C)nn3c2C)cc1OCC	inactive: 3.25%
Cc1ccc(NC(=O)Cn2c(=O)n(Cc3ccco3)c(=O)c3sc4ccccc4c32)cc1C	inactive: -10.1%
Oc1c(C(c2ccc(Cl)cc2)N2CCC3(CC2)OCCO3)sc2nc(-c3ccco3)nn12 (stereo unspecified)	inactive: -10.7%
CCn1c(=O)c(C(=O)Nc2ccc(C(C)=O)cc2)nc2ccccc21	inactive: -13.7%
O=C(Cn1c(=O)oc2ccccc21)Nc1ccc(C(=O)O)cc1	inactive: -5.96%
COc1cc(NC(=O)c2cccc3c2C(=O)N(C2CCCCC2)C3)cc(OC)c1	inactive: 3.64%
